Test results reported in PubChem BioAssay AID504339 (National Center for Advancing Translational Sciences (NCATS), 2011).
The campaign covered roughly 390,000 compounds. About 17,000 (4.4%) were called active. The shares of active, inactive and inconclusive entries below differ from those in the screen. Calls come from the whole dose curve; as a rule, active = well fitted inhibition curve with a large enough effect; inconclusive = small, poorly fitted or top-dose-only effect; inactive = no such curve, though single readings can be large or run the other way. Potencies beside an inconclusive call are fits to weak or partial responses and may not hold up.

Target: Lysine-specific demethylase 4A (Homo sapiens) (UniProt O75164)
UniProt O75164, sequence (O75164 whole entry, looked up, the tested form may be a part): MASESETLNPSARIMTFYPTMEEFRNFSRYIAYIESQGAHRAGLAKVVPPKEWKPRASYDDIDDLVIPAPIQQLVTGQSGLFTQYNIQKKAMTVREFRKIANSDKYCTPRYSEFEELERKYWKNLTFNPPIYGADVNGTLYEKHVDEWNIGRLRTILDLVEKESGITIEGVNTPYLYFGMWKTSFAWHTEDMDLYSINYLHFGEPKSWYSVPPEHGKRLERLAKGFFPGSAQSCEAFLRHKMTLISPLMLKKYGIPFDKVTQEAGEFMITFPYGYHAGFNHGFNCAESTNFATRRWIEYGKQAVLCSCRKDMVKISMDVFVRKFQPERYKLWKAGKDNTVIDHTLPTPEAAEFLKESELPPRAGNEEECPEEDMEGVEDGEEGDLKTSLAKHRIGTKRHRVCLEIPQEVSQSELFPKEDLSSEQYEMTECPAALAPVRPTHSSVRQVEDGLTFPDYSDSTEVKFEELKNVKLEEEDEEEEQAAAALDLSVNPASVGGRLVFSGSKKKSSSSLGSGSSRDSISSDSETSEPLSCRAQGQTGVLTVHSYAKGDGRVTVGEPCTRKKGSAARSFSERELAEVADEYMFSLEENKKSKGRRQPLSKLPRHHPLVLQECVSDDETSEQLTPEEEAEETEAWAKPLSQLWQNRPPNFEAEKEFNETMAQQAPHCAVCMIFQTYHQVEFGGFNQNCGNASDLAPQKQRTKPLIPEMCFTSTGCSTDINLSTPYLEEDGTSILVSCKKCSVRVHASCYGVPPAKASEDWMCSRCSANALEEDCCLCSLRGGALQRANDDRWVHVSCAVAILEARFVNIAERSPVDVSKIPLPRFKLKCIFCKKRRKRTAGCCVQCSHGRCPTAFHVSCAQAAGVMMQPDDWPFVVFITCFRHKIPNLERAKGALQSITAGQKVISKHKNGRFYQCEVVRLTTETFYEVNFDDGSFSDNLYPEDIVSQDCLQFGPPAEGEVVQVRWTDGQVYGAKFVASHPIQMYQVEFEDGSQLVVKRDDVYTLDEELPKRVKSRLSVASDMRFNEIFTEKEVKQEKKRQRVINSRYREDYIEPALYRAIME
Test: qHTS Assay for Inhibitors of JMJD2A-Tudor Domain; note: nearly all actives have a fitted effect of over 50% in size
Details: AlphaScreen JMJD2A-Tudor / H3K4me3 peptide binding; series mostly up to 114 µM
Potency is the fitted concentration of half-maximal effect; tags give direction and shape of the fitted curve.

Question: Which Potency does the source give for `CCOC(=O)c1ccc(NC(=O)Cn2cc(C(=O)c3ccc(Cl)cc3)c(=O)c3ccc(C)nc32)cc1` here?
Answer: inactive

Question: For `O=C(CCNS(=O)(=O)c1ccc2c(c1)CCN2C(=O)C1CC1)Nc1ccc(F)cc1F`, which Potency is on record?
Answer: inactive

Question: With `COc1ccc(S(=O)(=O)N2CC(=O)Nc3ccccc32)cc1Cl` as the compound, how does the Potency read?
Answer: inactive

Question: With `Cc1cccc(NC(=O)c2cc(S(=O)(=O)N3CCC4(CC3)OCCO4)ccc2F)c1` as the compound, how does the Potency read?
Answer: inconclusive: 15.8 µM [inhibitor, full curve]

Question: How did the Potency turn out when `O=C(O)CSc1c(-c2cccs2)[nH]c2ccccc12` was run?
Answer: inconclusive: 20 µM [inhibitor, full curve]

Question: With `CCOc1ccc(OCCOCCn2ccnc2)cc1` as the compound, how does the Potency read?
Answer: active: 8.91 µM

Question: Which Potency does the source give for `CCSc1ncc(Cl)c(C(=O)Nc2c(C(=O)c3ccccc3)oc3ccccc23)n1` here?
Answer: inactive

Question: `COc1cc(C(=O)NC(=S)Nc2ccccc2N2CCOCC2)cc(OC)c1OC` was tested. Which Potency did it give?
Answer: inconclusive: 50.1 µM [inhibitor, partial curve]

Question: For `CN(CCNC(=O)c1c[nH]c2c1ccc1ccccc12)CCNC(=O)c1c[nH]c2c1ccc1ccccc12`, which Potency is on record?
Answer: inconclusive: 28.2 µM [inhibitor, partial curve]

Question: `COc1ccc(CCNCC(=O)Nc2ccc(C)c(S(=O)(=O)N(C)C)c2)cc1OC` was tested. Which Potency did it give?
Answer: inconclusive: 0.708 µM [inhibitor, full curve, poor fit]

Question: How did the Potency turn out when `Cc1cccc(-n2c(O)c(C=Nc3ccc(O)cc3)c3ccccc3c2=O)n1` was run?
Answer: inactive

Question: Which Potency does the source give for `CCO/C=C1/C(=O)N(C(C)=O)c2ccccc21` here?
Answer: inactive

Question: Which Potency does the source give for `CCOC(=O)c1c(NC(=O)CCS(=O)(=O)c2ccccc2)sc2c1CCN(C(C)C)C2` here?
Answer: inactive

Question: For `CCN1C(=O)/C(=C2/Sc3ccccc3N2CC)S/C1=N\c1ncn[nH]1`, which Potency is on record?
Answer: inactive

Question: For `N#Cc1cccc(NC(=O)Cn2cnc(S(=O)(=O)N3CCOCC3)c2)c1`, which Potency is on record?
Answer: inconclusive: 14.1 µM [inhibitor, partial curve, poor fit]

Question: Which Potency does the source give for `Cc1cccc(C)c1NC(=O)Cn1nc(C)c2sc3ccccc3c2c1=O` here?
Answer: inactive

Question: With `Cc1ccc(-c2nc3s/c(=C\c4ccco4)c(=O)n3n2)cc1` as the compound, how does the Potency read?
Answer: active: 50.1 µM

Question: For `COc1ccc(-n2c(Cn3nnc4ccccc43)n[nH]c2=S)cc1`, which Potency is on record?
Answer: active: 17.8 µM

Question: With `CCOC(=O)Cn1c(=O)oc2cc(S(=O)(=O)Nc3ccc(N(CC)CC)cc3C)ccc21` as the compound, how does the Potency read?
Answer: inconclusive: 44.7 µM [inhibitor, partial curve]

Question: `CCCn1c(C)cc(C(=O)COC(=O)c2c(C)nn(-c3ccccc3)c2C)c1C` was tested. Which Potency did it give?
Answer: inconclusive: 56.2 µM [inhibitor, partial curve]

Question: `CCn1c(=O)n(CC)c2cc(N3CCCC3)c(NC(=O)c3cccc(OC)c3)cc21` was tested. Which Potency did it give?
Answer: inconclusive: 56.2 µM [inhibitor, partial curve, poor fit]

Question: With `CN1OC[C@@H]2CN(C(=O)CCc3ccccc3)[C@H](c3cccc(-c4ccccc4)c3)C[C@@H]21` as the compound, how does the Potency read?
Answer: inconclusive: 79.4 µM [inhibitor, partial curve]

Question: With `Cn1ccnc1-c1nc2ccccc2[nH]c1=O` as the compound, how does the Potency read?
Answer: active: 35.5 µM

Question: Which Potency does the source give for `COc1ccc(C(=O)c2cc([N+](=O)[O-])ccc2N2CCOCC2)cc1` here?
Answer: inconclusive: 44.7 µM [inhibitor, single point]

Question: With `C=CCCC1CN(CCCC)S(=O)(=O)c2c(F)cccc2O1` (configuration not stated) as the compound, how does the Potency read?
Answer: inactive

Question: How did the Potency turn out when `CCN(c1ccc(NC(=O)COC(=O)C2CCN(c3ccc(C(F)(F)F)cn3)CC2)cc1)C(C)C` was run?
Answer: active: 10 µM

Question: How did the Potency turn out when `COc1ccc(C[C@@H]2CN3C(=NC[C@@H]3Cc3ccc(O)cc3)N2C[C@H](C)NC(=O)CCC2CCCCC2)cc1` was run?
Answer: inconclusive: 63.1 µM [inhibitor, partial curve, poor fit]

Question: Which Potency does the source give for `COCc1ccc(CN2CCc3c([nH]c4ccccc34)C2C(C)(C)C)o1` (configuration not stated) here?
Answer: inconclusive: 50.1 µM [inhibitor, partial curve]

Question: Which Potency does the source give for `O=C(CSc1nnc(-c2ccncc2)n1Cc1ccco1)N1c2ccccc2Sc2ccc(Cl)cc21` here?
Answer: inconclusive: 44.7 µM [inhibitor, partial curve]

Question: For `Cc1ccc(-c2[nH]nc3c2C(c2ccoc2)C(C#N)=C(N)O3)cc1C` (configuration not stated), which Potency is on record?
Answer: inconclusive: 63.1 µM [inhibitor, partial curve]

Question: Which Potency does the source give for `Cc1cc(C)c2cc(CN(Cc3ccco3)C(=O)NCc3ccccc3)c(=O)[nH]c2c1` here?
Answer: inconclusive: 79.4 µM [inhibitor, partial curve]

Question: Which Potency does the source give for `O=C(O)CSc1nnc(-c2cccs2)n1-c1ccc(Cl)cc1` here?
Answer: active: 17.8 µM

Question: For `CC1CN(C(=S)c2cccc([N+](=O)[O-])c2)CC(C)O1` (configuration not stated), which Potency is on record?
Answer: inconclusive: 8.91 µM [inhibitor, partial curve, poor fit]

Question: How did the Potency turn out when `COc1ccc(-n2c(Cc3cccn3C)nnc2SCC(=O)Nc2ccc(Cl)cc2)cc1` was run?
Answer: inconclusive: 56.2 µM [inhibitor, partial curve]

Question: With `C/C(=N\NC(=O)c1ccc([N+](=O)[O-])cc1)c1c(O)cc(C)oc1=O` as the compound, how does the Potency read?
Answer: inconclusive: 20 µM [inhibitor, full curve]

Question: With `CCn1cc2nc(SCc3ccccc3F)n(Cc3ccc(C)cc3)c(=O)c2n1` as the compound, how does the Potency read?
Answer: inactive

Question: `COc1ccc(C2=NN(C(=O)CSc3nc(=O)n4cc(C)ccc4n3)C(c3ccc(C)cc3)C2)cc1` (configuration not stated) was tested. Which Potency did it give?
Answer: inconclusive: 89.1 µM [inhibitor, partial curve]

Question: How did the Potency turn out when `Cc1ccc(S(=O)(=O)NNC(=O)c2cnn(-c3ccccc3)c2C(F)(F)F)cc1` was run?
Answer: inactive

Question: For `O=C(O)CSc1nnc(COc2cccc3ccccc23)o1`, which Potency is on record?
Answer: inactive

Question: Which Potency does the source give for `O=c1cc(-c2ccccc2)nc2nc(SCc3ccccc3)[nH]n12` here?
Answer: inconclusive: 89.1 µM [inhibitor, partial curve]

Question: For `CCCS(=O)(=O)Nc1cc2c(cc1NCc1ccccc1)n(C)c(=O)n2C`, which Potency is on record?
Answer: inactive

Question: Which Potency does the source give for `Cc1ccc(-c2nc3c(c(SCC(=O)Nc4cccc(C(=O)O)c4)n2)Cc2cccc(C)c2O3)cc1` here?
Answer: active: 3.16 µM

Question: With `CCC(C)NCCOCCOc1ccc(Br)cc1C` (configuration not stated) as the compound, how does the Potency read?
Answer: active: 28.2 µM

Question: Which Potency does the source give for `CCNc1ccc(C(=O)OCC(=O)N2c3ccccc3NC(=O)C2(C)C)cc1[N+](=O)[O-]` here?
Answer: inconclusive: 63.1 µM [inhibitor, partial curve]

Question: For `Cc1ccn2c(NC3CCCC3)c(-c3ccccn3)nc2c1`, which Potency is on record?
Answer: active: 50.1 µM

Question: `Cc1ccc(Nc2ccc(S(=O)(=O)N3CCOCC3)cc2[N+](=O)[O-])c(C)c1` was tested. Which Potency did it give?
Answer: inconclusive: 8.91 µM [inhibitor, partial curve]

Question: How did the Potency turn out when `CCN(CC)CCNC(=O)c1ccc2c(=O)n3nc(Nc4ccccc4)sc3nc2c1` was run?
Answer: inactive

Question: For `COC(=O)c1ccc(-n2cncn2)c([N+](=O)[O-])c1`, which Potency is on record?
Answer: inconclusive: 14.1 µM [inhibitor, full curve, poor fit]

Question: How did the Potency turn out when `CC(=O)c1ccc(S(=O)(=O)N2CCN(C(C)=O)CC2)cc1` was run?
Answer: inactive

Question: Which Potency does the source give for `CC(C)(C)NC(=O)NC(=O)COC(=O)c1cccc(OC(F)F)c1` here?
Answer: inactive

Question: How did the Potency turn out when `O=C(Nc1ccccn1)c1ccc(=O)[nH]n1` was run?
Answer: inconclusive: 39.8 µM [inhibitor, partial curve]

Question: `N#C/C(=C(\O)Cc1ccccc1)c1nc2ccccc2[nH]1` was tested. Which Potency did it give?
Answer: inconclusive: 89.1 µM [inhibitor, single point]

Question: How did the Potency turn out when `O=C(Nc1cccc(-c2cnc3ccccc3n2)c1)c1ccco1` was run?
Answer: inconclusive: 79.4 µM [inhibitor, single point]

Question: With `Cc1ccc(CNC(=O)C2CCCN(Cc3nc(-c4cccc(C)c4)oc3C)C2)cc1` (configuration not stated) as the compound, how does the Potency read?
Answer: inconclusive: 56.2 µM [inhibitor, partial curve, poor fit]

Question: Which Potency does the source give for `c1ccc(OCc2ccc(CCCN3CCOCC3)cc2)cc1` here?
Answer: inactive

Question: With `CC1(C)C(/C=C/C=C/C=C/C=C2\N(CCCCS(=O)(=O)O)c3ccc4ccccc4c3C2(C)C)=[N+](CCCCS(=O)(=O)[O-])c2ccc3ccccc3c21` as the compound, how does the Potency read?
Answer: active: 6.31 µM

Question: How did the Potency turn out when `O=C(O)/C(=C\c1ccc(Cl)c([N+](=O)[O-])c1)c1ccc(S(=O)(=O)N2CCCCC2)s1` was run?
Answer: inconclusive: 63.1 µM [inhibitor, partial curve, poor fit]

Question: For `CC1CCCN(C(=O)c2ccc(Br)c(S(=O)(=O)N3CCOCC3)c2)C1` (configuration not stated), which Potency is on record?
Answer: inactive

Question: For `Cc1ccc(C)c(OCCOCCN2CCOCC2)c1`, which Potency is on record?
Answer: inactive

Question: With `COc1cccc(NC(=O)CSC(N)=O)c1` as the compound, how does the Potency read?
Answer: inactive

Question: Which Potency does the source give for `O=[N+]([O-])c1ccc(-c2cnc(NO)nc2)cc1` here?
Answer: inconclusive: 70.8 µM [inhibitor, single point]

Question: `Nc1nc(-c2ccc3c(c2)CCCC3)cs1` was tested. Which Potency did it give?
Answer: inconclusive: 79.4 µM [inhibitor, partial curve, poor fit]

Question: `O=C(CCc1ccccc1)Nc1nnc(-c2ccccn2)o1` was tested. Which Potency did it give?
Answer: active: 20 µM

Question: How did the Potency turn out when `CC1(C)OC(=O)N(CC(=O)Nc2cccc(C(F)(F)F)c2)C1(C)O` (configuration not stated) was run?
Answer: inactive

Question: How did the Potency turn out when `c1cc2nc(C34CC5CC(CC(C5)C3)C4)[nH]c2cn1` was run?
Answer: active: 22.4 µM

Question: `CCOC(=O)N/N=C/C=C/c1ccccc1[N+](=O)[O-]` was tested. Which Potency did it give?
Answer: inconclusive: 20 µM [inhibitor, full curve, poor fit]

Question: Which Potency does the source give for `O=C(CCc1ccccc1)OCC(=O)c1ccc(Br)cc1` here?
Answer: inactive

Question: Which Potency does the source give for `CC(=O)N1C=CN(C(C)=O)C(c2cn(C)c3ccccc23)C1c1cn(C)c2ccccc12` (configuration not stated) here?
Answer: inconclusive: 79.4 µM [inhibitor, partial curve]

Question: Which Potency does the source give for `CC1CCCCN1CCCNC(=O)Cn1c(=O)c2cccn2c2ccccc21` (configuration not stated) here?
Answer: inactive

Question: `Cc1ccc(C(C)C)cc1NC(=O)Nc1ccc([N+](=O)[O-])cc1` was tested. Which Potency did it give?
Answer: inconclusive: 39.8 µM [inhibitor, partial curve]

Question: For `CN1CCc2sc(NC(=O)Cc3ccccc3)c(C(=O)Nc3ccc(Cl)cc3)c2C1`, which Potency is on record?
Answer: inconclusive: 79.4 µM [inhibitor, partial curve]

Question: `Cc1nn(CC(=O)NC2C(=O)N3C(C(=O)O)=C(CSc4nnnn4C)CSC23)cc1Br` (configuration not stated) was tested. Which Potency did it give?
Answer: inactive
